In PubChem BioAssay (NCI):
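48-hour exposure; five concentrations; linearly interpolated endpoints. TGI marks complete inhibition of growth.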 Not every entry of the source has a single result; some have several. This is not the full list of results. An entry can have further records. For some of these results: A record mostly stands for its own series of concentrations, which the source does not state; a value can be the end of its range. For some of these results: The records of an entry repeat one measurement across runs, samples, wells, individuals or studies. Records carry a tag for their origin. Letters hold for one entry only.

What was measured:
Test in all cases: NCI anticancer screen, dose series, 48 h
NCI/ADR-RES ovarian = tested on: NCI/ADR-RES ovarian
HT29 colon = tested on: HT29 colon
HCT-15 colon = tested on: HCT-15 colon
UO-31 renal = tested on: UO-31 renal
HL-60(TB) leukemia = tested on: HL-60(TB) leukemia
UACC-257 melanoma = tested on: UACC-257 melanoma
ACHN renal = tested on: ACHN renal
SF-295 CNS = tested on: SF-295 CNS
M19-MEL melanoma = tested on: M19-MEL melanoma
MALME-3M melanoma = tested on: MALME-3M melanoma
NCI-H23 lung = tested on: NCI-H23 lung
MOLT-4 leukemia = tested on: MOLT-4 leukemia
OVCAR-5 ovarian = tested on: OVCAR-5 ovarian
CAKI-1 renal = tested on: CAKI-1 renal
A549 NSCLC = tested on: A549 NSCLC
CCRF-CEM leukemia = tested on: CCRF-CEM leukemia
RPMI-8226 leukemia = tested on: RPMI-8226 leukemia
K-562 leukemia = tested on: K-562 leukemia
SR leukemia = tested on: SR leukemia
EKVX NSCLC = tested on: EKVX NSCLC
SK-MEL-5 melanoma = tested on: SK-MEL-5 melanoma
RXF 393 renal = tested on: RXF 393 renal
HOP-62 NSCLC = tested on: HOP-62 NSCLC
HOP-92 NSCLC = tested on: HOP-92 NSCLC
TK-10 renal = tested on: TK-10 renal

Q: With `CN(C)CC1CCCC(CN(C)C)C1=O` (stereo not drawn) as the molecule, how does the TGI (NCI/ADR-RES ovarian) read?
A: 9.09 µM [sample A, 1 test] and 97.8 µM [sample B, mean of 2 tests]

Q: What about the TGI (HT29 colon) of the same molecule?
A: 2.11 µM [sample A, mean of 5 tests] and 45.3 µM [sample B, mean of 2 tests]

Q: What about the TGI (HCT-15 colon) of the same molecule?
A: 2.51 µM [sample A, mean of 6 tests] and 35.8 µM [sample B, mean of 2 tests]

Q: What about the TGI (UO-31 renal) of the same molecule?
A: 33.2 µM [sample A, mean of 7 tests] and 3.24 µM [sample B, mean of 2 tests]

Q: What does the source list for `CC[n+]1c(/C=C/c2ccc(N(CCCl)CCCl)cc2)ccc2cc(Br)ccc21`?
A: TGI (HL-60(TB) leukemia): 646 nM and 233 µM; TGI (UACC-257 melanoma): 2.48 µM and 267 µM; TGI (ACHN renal): 12.7 µM and 3.64 mM; TGI (SF-295 CNS): 8.6 µM and 3.1 mM; TGI (M19-MEL melanoma): 3.14 µM and 513 µM; TGI (MALME-3M melanoma): 3.81 µM and 312 µM; TGI (NCI-H23 lung): 14.6 µM and 684 µM; TGI (MOLT-4 leukemia): 3.87 µM and 988 µM; TGI (OVCAR-5 ovarian): 16 µM and 726 µM; TGI (CAKI-1 renal): 6.31 µM and 6.49 mM; TGI (A549 NSCLC): 15.5 µM and 11.1 mM; TGI (CCRF-CEM leukemia): 1.76 µM and 1.86 mM; TGI (RPMI-8226 leukemia): 10.9 µM and 1.39 mM; TGI (K-562 leukemia): 10.3 µM and 1.31 mM; TGI (SR leukemia): 3.91 µM and 4.26 mM; TGI (EKVX NSCLC): 16.7 µM and 17.2 mM; TGI (SK-MEL-5 melanoma): 2.36 µM and 419 µM; TGI (RXF 393 renal): 5.76 µM and 1.13 mM; TGI (HOP-62 NSCLC): 8.68 µM and 2.23 mM; TGI (HOP-92 NSCLC): 2.99 µM and 230 µM; TGI (HT29 colon): 12.7 µM and 1.84 mM; TGI (HCT-15 colon): 34.5 µM and 12.4 mM; TGI (TK-10 renal): 20.4 µM and 1.32 mM; TGI (UO-31 renal): 32 µM and 4.5 mM
